Laboratory results published in the supplement of paper PMC7826260.
Some of the results follow. Viral Rep nickase domains cut single-stranded DNA in vitro (1 h at 37 °C, 3 µM enzyme); the outer parts of the 90-letter strands are left off. Values are log2 of uncut reads against the no-enzyme pool; uncut sequences lie near 0, cut ones below; no hit call is given. Because reads are shares of a total, they shift together; where an enzyme cuts many sequences, the uncut ones exceed 0.

Columns and labels:
Assay in all cases: uncleaved DNA left, log2 of reads against the no-enzyme library (log2 ratio); higher = less cleavage (more negative = more Rep cleavage of the k-mer); sequences stand for … in CTCGTCCG…ACCGGAGA
[1] = system: T1, Rep nickase domain of Muscovy duck circovirus
T1 sequence (residues 1-111 of Rep, tag left off): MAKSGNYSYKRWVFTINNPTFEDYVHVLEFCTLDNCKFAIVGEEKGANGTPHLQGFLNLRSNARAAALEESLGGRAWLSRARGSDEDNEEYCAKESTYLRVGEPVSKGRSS
Procedure: (§1)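 A pool of 90-nt single-stranded DNAs with seven random bases just before the constant AC of the nick site (name = the seven bases) was cut by 3 µM recombinant His6-SUMO-tagged Rep nickase domain (300 nM DNA, 50 mM HEPES pH 8.0, 50 mM NaCl, 1 mM MnCl2, 1 h, 37 °C, three replicates). Uncut DNA was amplified and sequenced.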

[2] = system: T2, Rep nickase domain of banana bunchy top virus
T2 sequence (residues 1-94 of Rep, tag left off): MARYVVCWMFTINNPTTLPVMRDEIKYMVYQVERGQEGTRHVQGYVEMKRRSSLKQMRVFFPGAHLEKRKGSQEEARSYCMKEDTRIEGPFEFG
Procedure: as §1

[3] = system: T3, Rep nickase domain of cabbage leaf curl virus
T3 sequence (residues 1-116 of Rep, tag left off): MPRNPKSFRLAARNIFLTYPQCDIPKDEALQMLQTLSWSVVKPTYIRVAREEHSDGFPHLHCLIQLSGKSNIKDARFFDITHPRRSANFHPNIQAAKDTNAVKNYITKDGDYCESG
Procedure: as §1

[4] = system: T4, Rep nickase domain of chickpea chlorotic dwarf virus
T4 sequence (residues 1-124 of Rep, tag left off): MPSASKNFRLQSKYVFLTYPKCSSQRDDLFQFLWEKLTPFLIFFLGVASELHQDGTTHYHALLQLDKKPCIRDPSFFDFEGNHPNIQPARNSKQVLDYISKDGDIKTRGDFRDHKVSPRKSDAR
Procedure: as §1

[5] = system: T5, Rep nickase domain of faba bean necrotic yellows virus
T5 sequence (residues 1-98 of Rep, tag left off): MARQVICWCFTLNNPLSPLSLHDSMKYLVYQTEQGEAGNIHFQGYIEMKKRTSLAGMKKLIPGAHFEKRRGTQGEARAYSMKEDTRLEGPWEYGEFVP
Procedure: as §1

[6] = system: T6, Rep nickase domain of maize striate mosaic virus
T6 sequence (residues 1-117 of Rep, tag left off): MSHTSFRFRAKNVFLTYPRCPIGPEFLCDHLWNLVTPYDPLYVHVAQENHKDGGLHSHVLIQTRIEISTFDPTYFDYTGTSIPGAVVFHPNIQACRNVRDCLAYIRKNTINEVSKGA
Procedure: as §1

[7] = system: T7, Rep nickase domain of porcine circovirus 2
T7 sequence (residues 2-116 of Rep, tag left off): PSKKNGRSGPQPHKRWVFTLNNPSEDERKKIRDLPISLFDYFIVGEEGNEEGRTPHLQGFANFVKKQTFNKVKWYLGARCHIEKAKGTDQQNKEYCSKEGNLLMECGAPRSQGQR
Procedure: as §1

[8] = system: T8, Rep nickase domain of tomato golden mosaic virus
T8 sequence (residues 1-124 of Rep, tag left off): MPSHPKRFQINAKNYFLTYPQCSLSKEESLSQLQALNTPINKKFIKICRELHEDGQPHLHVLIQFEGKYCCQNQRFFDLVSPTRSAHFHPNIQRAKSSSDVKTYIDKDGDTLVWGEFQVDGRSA
Procedure: as §1

[9] = system: T9, Rep nickase domain of tomato yellow leaf curl virus
T9 sequence (residues 1-136 of Rep, tag left off): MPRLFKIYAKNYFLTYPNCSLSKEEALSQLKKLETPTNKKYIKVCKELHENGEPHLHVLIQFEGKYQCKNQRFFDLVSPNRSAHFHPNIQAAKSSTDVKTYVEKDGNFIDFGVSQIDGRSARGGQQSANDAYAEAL
Procedure: as §1

[10] = system: T10, Rep nickase domain of wheat dwarf virus
T10 sequence (residues 1-137 of Rep, tag left off): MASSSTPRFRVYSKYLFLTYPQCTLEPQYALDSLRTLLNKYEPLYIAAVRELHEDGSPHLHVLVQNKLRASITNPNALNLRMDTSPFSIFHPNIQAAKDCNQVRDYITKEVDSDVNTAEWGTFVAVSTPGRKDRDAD
Procedure: as §1

Sequence	uncleaved DNA left (log2) [1]	uncleaved DNA left (log2) [2]	uncleaved DNA left (log2) [3]	uncleaved DNA left (log2) [4]	uncleaved DNA left (log2) [5]	uncleaved DNA left (log2) [6]	uncleaved DNA left (log2) [7]	uncleaved DNA left (log2) [8]	uncleaved DNA left (log2) [9]	uncleaved DNA left (log2) [10]
TGCTTAC	0.0678	-0.0146	0.161	-1.08	-0.0463	0.251	-0.0329	0.0435	-0.0872	-0.0693
TCAGATC	-0.0133	-0.128	0.189	-0.133	-0.0227	-0.234	-0.0821	0.0551	-0.174	-0.118
CAGTAAA	-0.134	-0.0197	-0.139	-0.91	-0.205	-0.712	-3.15	0.0726	-0.119	-0.0438
AGCCAGG	0.153	0.258	0.153	0.651	0.213	0.824	0.191	0.153	0.0621	0.159
CTACCAG	-0.215	-0.119	-0.958	-1.58	-0.138	-1.04	-0.359	-0.142	-0.0629	-0.179
ATTGCTG	0.065	0.0238	-0.348	-0.124	0.0131	-0.797	0.122	-0.0645	-0.00335	-0.0769
GTAACGG	0.0452	0.0855	0.606	1.63	-0.0365	2.19	0.169	0.197	-0.0149	0.112
TGCGAAC	0.0561	-0.0387	0.00073	-0.0227	0.138	-0.399	0.137	0.0598	-0.0059	0.049
CGGCACT	-0.0651	-0.191	0.0444	0.0861	-0.0828	1.02	-0.0406	-0.193	0.0719	0.0541
TCGTCAC	0.208	0.0811	0.238	0.0387	0.0601	-0.33	-0.102	-0.00748	0.09	-0.00882
TAACAGA	0.0913	-0.0423	-0.448	-2.31	0.0471	-0.874	0.00199	0.0051	0.0448	0.0133
ACATATC	0.0512	-0.0121	-0.171	-0.0619	0.15	-0.955	0.119	0.0509	-0.0073	0.0225
ATTGAGC	0.00729	0.0549	-0.342	-0.368	0.0778	-0.835	0.15	0.0425	-0.0521	-0.122
CGCCCAT	0.344	0.248	0.283	0.061	0.164	0.263	0.079	-0.0273	0.291	0.186
GCATCGA	-0.00403	-0.0371	-0.343	-0.424	0.0381	-0.826	0.0887	0.0829	0.0347	-0.0557
GCAGAGA	0.0371	0.152	0.579	1.21	0.0385	0.601	0.17	0.0732	0.0359	0.178

Sequence	uncleaved DNA left (log2) [1]	uncleaved DNA left (log2) [2]	uncleaved DNA left (log2) [3]	uncleaved DNA left (log2) [4]	uncleaved DNA left (log2) [5]	uncleaved DNA left (log2) [6]	uncleaved DNA left (log2) [7]	uncleaved DNA left (log2) [8]	uncleaved DNA left (log2) [9]	uncleaved DNA left (log2) [10]
GTATGAC	0.0423	0.0702	0.481	1.12	0.031	1.63	0.216	0.085	0.169	0.133
ATATAAG	0.127	0.105	-0.683	0.131	0.134	-0.983	0.18	0.0768	0.122	-0.0299
CCGCGTG	0.00378	0.0336	-0.36	-0.429	-0.0694	-0.565	0.239	0.095	0.0028	0.0439
CTTGAGG	0.0557	0.0543	0.473	1.35	0.0783	1.45	0.138	0.152	-0.112	0.0969
CTGTCGG	-0.0548	-0.054	0.517	1.77	0.0298	1.71	-0.0392	0.135	-0.113	-0.0605
TGATTGT	-0.219	0.083	-0.241	-0.308	0.125	-0.957	-0.254	-0.0488	-0.0442	-0.0444
TCCAGGC	0.161	0.0407	0.285	0.452	0.062	-0.169	0.109	-0.00262	0.0652	-0.0565
GTCCAGA	0.0346	0.0182	0.326	0.902	-0.0346	1.59	0.0792	0.0429	0.0675	-0.0588
CCAACTG	-0.0582	-0.0415	0.262	1.1	0.00669	1.46	0.109	-0.0797	-0.127	-0.00117
CCTGTAC	0.0955	0.00576	-0.0349	-0.688	0.168	-0.543	0.0159	0.0143	0.00253	-0.0462
CATGTAG	0.0652	-0.0922	-0.555	0.362	0.0341	-0.604	0.0169	0.029	0.068	-0.0355
AAAGCCT	0.0185	0.0588	-0.593	-2.36	0.0116	-0.201	-0.227	-0.125	-0.0427	-0.187
CTATCGC	-0.0821	-0.125	-0.64	-0.91	-0.00174	-1.09	-0.0268	-0.153	-0.097	-0.187
AGACGTG	-0.017	-0.0456	-0.311	-0.0348	-0.0583	-0.275	0.0339	-0.0691	-0.104	-0.244
AACTGCG	-0.0542	0.00124	0.0641	1.33	0.0366	0.968	0.0825	0.023	-0.146	-0.105
